Among all 48,000 compounds or so, about 1,200 (2.5%) were called active. Another 2% or so got no clear call; they are omitted.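 The calls were made as follows: active = activation of at least 60% and not above a set upper limit (about 1 call in 100 departs from these limits); inconclusive = activation of 40% to 60%, or above that upper limit; inactive = activation under 40%.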 This is one part of the list.
What follows are compounds tested against Probable G-protein coupled receptor 32 (Homo sapiens) (UniProt O75388) (assay: qHTS for Agonists of Human Resolvin D1 Receptor DRV1). Conditions: CHO-K1 GPR32 beta-arrestin PathHunter luminescence, 90 min; at 76.9 µM; active compounds read high; zero percent set by DMSO-only wells.
Chain of UniProt O75388 (O75388 whole entry, looked up): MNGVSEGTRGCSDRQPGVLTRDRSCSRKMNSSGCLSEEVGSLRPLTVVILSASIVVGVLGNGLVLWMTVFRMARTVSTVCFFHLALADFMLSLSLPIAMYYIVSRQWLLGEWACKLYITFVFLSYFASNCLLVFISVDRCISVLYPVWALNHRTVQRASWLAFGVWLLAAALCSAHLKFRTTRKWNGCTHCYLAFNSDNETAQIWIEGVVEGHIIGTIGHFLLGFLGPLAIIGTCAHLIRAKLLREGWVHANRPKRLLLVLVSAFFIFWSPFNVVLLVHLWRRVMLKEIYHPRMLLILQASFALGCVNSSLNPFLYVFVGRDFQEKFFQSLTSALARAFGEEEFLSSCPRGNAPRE
In short: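 Step 1: seed CHO-K1 GPR32 beta-arrestin cells, 2,500/well, overnight at 37 °C. Step 2: add compounds, 90 min at 37 °C. Step 3: detection reagent, 1 h ambient, then luminescence.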
Also: 0% is about no effect.

activation, inactive:
Cc1cccc(N2CCN(C(=O)Cn3ncc4c3-c3cc(C)ccc3OC4)CC2C)c1 (stereo not drawn) 2.24%, CCC(C)NC(=O)Cn1c(=O)n(CCCCCC(=O)Nc2ccccc2)c(=O)c2sccc21 (stereo not drawn) -23.3%, CCCCOC(=O)c1ccc(OC(=O)c2sc3ncn(Cc4cccc(F)c4)c(=O)c3c2C)cc1 9.99%, CCOC(=O)c1[nH]c(C)c(CCC(=O)Nc2ccccc2OCC)c1C -17.1%, CCc1cccc(C)c1NC(=O)CCCn1c(C)c2cnn(-c3ccccc3)c(=O)c2c1C -10.4%, CCCN(C(=O)Cc1nc(-c2ccc(OC)cc2)no1)c1ccccc1C -15.5%, Cc1cccc(N(C)C(=S)Oc2ccc3c(c2)C2CCC3C2)c1 (stereo not drawn) -0.0232%, CN1C(=O)CC(C(=O)Nc2ccc(C(=O)O)cc2)SC1=Nc1ccc(Cl)cc1 (stereo not drawn) -61.2%, Cn1c(=O)c2c(nc(NCCCCO)n2Cc2ccccc2Cl)n(C)c1=O -3.64%, COc1ccc(C(=O)Nc2nnc(SCc3cc(=O)c4cccc(F)c4[nH]3)s2)cc1 -4.04%, COc1cc2[nH]c(=O)[nH]c(=O)c2cc1OC 13.4%, COc1cccc(-c2nnc(SCC(=O)N(C)c3ccccc3)o2)c1 29.3%, CCN(CC)CCCNC(=O)Cn1ncc2c3ccccc3n(Cc3ccccc3)c2c1=O 9.32%, CCN(CC)c1ccc(NS(=O)(=O)c2cc(-c3onc(C)c3C)ccc2OC)c(C)c1 -31.4%, Cc1ccc2c(=O)cc(C(=O)Nc3ccc(S(=O)(=O)N4CCCCC4C)cc3)oc2c1C (stereo not drawn) 13.6%, CCOC(=O)c1ccc(NC(=O)CC2C(=O)N(c3cccc(OC)c3)C(=O)N2Cc2cccnc2)cc1 (stereo not drawn) -8.97%, CC(=O)c1ccc(NC(=O)C(C)n2nc(-c3ccccc3)ccc2=O)cc1 (stereo not drawn) 3.24%, Cc1cc(C)n(C(C)CC(=O)Nc2cccc(C#N)c2)n1 (stereo not drawn) -5.33%, CCc1nc(Nc2ccc(F)c(Cl)c2)c2c3c(sc2n1)CCCC3 19.3%, Cc1cccc(C)c1NC(=O)Cn1cc(C(=O)c2ccco2)c2ccccc21 -2.57%, O=C(Cn1ncc2c3ccccc3n(Cc3cccc(Cl)c3)c2c1=O)NCCCc1ccccc1 -15.5%, COc1ccc(-c2c(C)nn3c(-c4ccccc4)cc(C)nc23)cc1OC -23.4%, Cc1cc(O)c(C(c2ccccc2)N2CCN(c3ccccc3)CC2)c(=O)n1Cc1ccco1 (stereo not drawn) -18.9%, CCOc1ccc(-c2nn(-c3ccc(F)cc3)c3c2cnc2ccc(F)cc23)cc1 -1.48%, Cc1ccc2oc(-c3ccc(Cl)cc3)c(O)c(=O)c2c1 19.3%, Cc1cccc(NC(=O)C2CCCN(S(=O)(=O)c3ccc4c(c3)oc(=O)n4C)C2)c1C (stereo not drawn) -15%, COC(=O)c1c(NC(=O)COc2ccc(C)cc2Br)sc2c1CCCC2 3.02%, CCOc1ccc(N(C)S(=O)(=O)c2cc(-c3cc(C)no3)ccc2OC)cc1 -28.7%, Cc1ccc(CNC(=O)CN(C)S(=O)(=O)c2ccc3c(c2)c(=O)n(C)c(=O)n3C)cc1 1.86%, COc1cccc(N2C(=O)C(CC(=O)Nc3ccccc3)N(CCc3sccc3C)C2=O)c1 (stereo not drawn) -16.5%, CCCCCCCCCCCCCC(=O)OC(C)C -8.36%, CC(O)(P(=O)(O)O)P(=O)(O)O -18.1%, CCc1ccccc1NC(=O)CN1C(=O)C2CCCN2c2ccc(S(=O)(=O)N(CC)CC)cc21 (stereo not drawn) -14.2%, CCOC(=O)C(CC)Sc1ncnc2c1c(-c1ccccc1)cn2-c1ccc(OC)cc1 (stereo not drawn) -19.5%, Cc1c(CNC2CCC(C)CC2)c(C(=O)O)c(C)n1Cc1ccc(Cl)cc1 (stereo not drawn) 3.39%, O=C(CSc1nnc(-c2ccccc2)c(-c2ccccc2)n1)NCCc1ccccc1 -59%, CCS(=O)(=O)N1CC(=O)N(c2ccc(Cl)cc2C)C(C)(C(=O)NC2CCCCC2)C1 (stereo not drawn) -3.29%, O=C(NCCc1ccc(F)cc1)C(=O)NCC(c1cccs1)S(=O)(=O)c1ccc(Cl)cc1 (stereo not drawn) 33.1%, Cc1cc(=O)n(CC(=O)N2CCCc3ccccc32)c2c1c(C)nn2-c1cccc(F)c1 1.39%, Cc1cc(C)c(OCC(=O)N(Cc2ccc(N(C)C)cc2)CC2CCCO2)c(C)c1 (stereo not drawn) -7.16%, CCn1c(=O)c2cc(C(=O)NCc3ccc(F)cc3Cl)sc2c2ccccc21 9.52%, Cc1ccc(C)c(N(C)C(=O)c2cc3c(s2)-c2ccccc2OC3)c1 -5.25%

activation, active:
COc1ccc2c(C)c(CCC(=O)NCCc3ccc(OC)c(OC)c3)c(=O)oc2c1 68.2%

— PubChem BioAssay AID1346428 (National Center for Advancing Translational Sciences (NCATS), 2018)
